Laboratory results taken from the supplement of paper PMC3334620.
In all, about 33,000 sequences were measured (“E-score (-0.5 to 0.5)”: median about -0.035, highest 2% from about 0.35 on). The list shows a part of the results.

molecular target: T1, Pdr3 (UniProt P33200); assay: PBM E-score (8-mer binding enrichment) (E-score (-0.5 to 0.5)); higher = stronger / more preferred TF binding; most listed sequences are background and not binding sites; conditions: protein concentration: 200 nM; construct: GST-full length
T1 sequence: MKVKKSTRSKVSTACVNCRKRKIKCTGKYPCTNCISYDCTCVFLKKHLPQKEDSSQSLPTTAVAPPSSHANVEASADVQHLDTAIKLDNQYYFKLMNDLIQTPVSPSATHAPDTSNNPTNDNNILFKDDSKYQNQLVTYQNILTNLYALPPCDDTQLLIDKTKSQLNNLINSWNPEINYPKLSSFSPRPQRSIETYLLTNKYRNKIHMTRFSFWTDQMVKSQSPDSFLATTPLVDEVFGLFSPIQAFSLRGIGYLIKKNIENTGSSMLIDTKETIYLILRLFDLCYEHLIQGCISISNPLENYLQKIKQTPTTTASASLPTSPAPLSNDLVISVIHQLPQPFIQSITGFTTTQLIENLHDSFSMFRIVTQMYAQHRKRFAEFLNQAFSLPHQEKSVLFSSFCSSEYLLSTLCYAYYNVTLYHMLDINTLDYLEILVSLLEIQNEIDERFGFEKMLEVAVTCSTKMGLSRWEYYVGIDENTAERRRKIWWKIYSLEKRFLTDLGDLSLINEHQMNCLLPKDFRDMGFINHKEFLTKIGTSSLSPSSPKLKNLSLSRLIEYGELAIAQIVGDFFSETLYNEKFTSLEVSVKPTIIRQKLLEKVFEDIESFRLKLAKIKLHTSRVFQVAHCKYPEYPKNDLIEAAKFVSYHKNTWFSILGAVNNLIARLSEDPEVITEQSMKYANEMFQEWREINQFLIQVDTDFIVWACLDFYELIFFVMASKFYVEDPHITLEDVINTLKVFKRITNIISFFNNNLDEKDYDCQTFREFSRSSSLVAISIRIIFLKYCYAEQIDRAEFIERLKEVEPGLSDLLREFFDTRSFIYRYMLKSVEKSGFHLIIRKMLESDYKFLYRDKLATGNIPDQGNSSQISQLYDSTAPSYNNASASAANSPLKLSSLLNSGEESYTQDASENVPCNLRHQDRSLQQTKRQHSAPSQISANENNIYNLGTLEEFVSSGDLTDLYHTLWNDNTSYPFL
Procedure, shortened: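 For each ungapped eight-base word taken together with its reverse complement, the Universal PBM Analysis Suite assigned an E-score. Binding data came from GST-tagged yeast transcription factors, applied at about 100-200 nM, on universal all-10-mer Agilent arrays made double-stranded by primer extension. Fluorescent anti-GST marked bound protein, and scans were normalised with masliner.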

**Q.** For CTGCTTCC, which “PBM E-score” value is on record?
**A.** The value was 0.177.

**Q.** How did the “PBM E-score” value turn out when GTCGAAAA was run?
**A.** The value was -0.0482.

**Q.** For ATAATGGC, which “PBM E-score” value is on record?
**A.** The value was 0.0655.

**Q.** How did the “PBM E-score” value turn out when AATGCTCC was run?
**A.** Its value is 0.0293.

**Q.** CAACCTAG was tested. Which “PBM E-score” value did it give?
**A.** The value was -0.125.

**Q.** With AGCCTGGG as the sequence, how does the “PBM E-score” value read?
**A.** Its value is -0.0413.

**Q.** How did the “PBM E-score” value turn out when CAGTCCCA was run?
**A.** The value was -0.161.

**Q.** With AAGGGAAG as the sequence, how does the “PBM E-score” value read?
**A.** Its value is -0.0188.

**Q.** With CTTGGTCC as the sequence, how does the “PBM E-score” value read?
**A.** The value was 0.0714.

**Q.** For CACAACAG, which “PBM E-score” value is on record?
**A.** The value was -0.31.

**Q.** AGAATACG was tested. Which “PBM E-score” value did it give?
**A.** Its value is -0.0681.

**Q.** Which “PBM E-score” value does the source give for GAACACAC here?
**A.** Its value is 0.138.

**Q.** Which “PBM E-score” value does the source give for CAGCAGGA here?
**A.** Its value is -0.046.

**Q.** For AACCGGGA, which “PBM E-score” value is on record?
**A.** The value was 0.243.

**Q.** AAAGGTTC was tested. Which “PBM E-score” value did it give?
**A.** Its value is -0.0723.

**Q.** TCAGTGCA was tested. Which “PBM E-score” value did it give?
**A.** The value was -0.159.

**Q.** Which “PBM E-score” value does the source give for CAATGGTC here?
**A.** The value was -0.0842.

**Q.** CAAATCCG was tested. Which “PBM E-score” value did it give?
**A.** Its value is 0.268.

**Q.** Which “PBM E-score” value does the source give for AGATTAGC here?
**A.** Its value is -0.0982.

**Q.** With GTGCAGAA as the sequence, how does the “PBM E-score” value read?
**A.** The value was -0.102.

**Q.** With AGAGACAG as the sequence, how does the “PBM E-score” value read?
**A.** The value was -0.0197.

**Q.** How did the “PBM E-score” value turn out when ATAGGGTA was run?
**A.** Its value is -0.118.

**Q.** How did the “PBM E-score” value turn out when GAGTCCTA was run?
**A.** The value was -0.235.

**Q.** Which “PBM E-score” value does the source give for AAGGTCAA here?
**A.** The value was -0.207.

**Q.** Which “PBM E-score” value does the source give for AACTCCAC here?
**A.** The value was -0.0653.

**Q.** With GCAGAGCA as the sequence, how does the “PBM E-score” value read?
**A.** The value was -0.193.

**Q.** Which “PBM E-score” value does the source give for CTTGCGAC here?
**A.** Its value is -0.135.

**Q.** How did the “PBM E-score” value turn out when ATTTGGAA was run?
**A.** Its value is -0.159.

**Q.** For TAATTCCA, which “PBM E-score” value is on record?
**A.** The value was -0.0255.

**Q.** Which “PBM E-score” value does the source give for CTAGGATC here?
**A.** The value was -0.0571.

**Q.** GACCAGGC was tested. Which “PBM E-score” value did it give?
**A.** Its value is -0.209.

**Q.** ACGCTTAT was tested. Which “PBM E-score” value did it give?
**A.** Its value is -0.243.

**Q.** CGGCGATC was tested. Which “PBM E-score” value did it give?
**A.** Its value is 0.279.

**Q.** For CCGGCAGA, which “PBM E-score” value is on record?
**A.** Its value is 0.229.

**Q.** For GCGCCGGA, which “PBM E-score” value is on record?
**A.** The value was 0.384.

**Q.** Which “PBM E-score” value does the source give for GCTTAACA here?
**A.** Its value is -0.048.

**Q.** For CGGCCCCA, which “PBM E-score” value is on record?
**A.** The value was -0.0292.

**Q.** ATCGAGCC was tested. Which “PBM E-score” value did it give?
**A.** Its value is -0.00748.

**Q.** Which “PBM E-score” value does the source give for TCGGTGCA here?
**A.** Its value is 0.132.

**Q.** With CTCACATA as the sequence, how does the “PBM E-score” value read?
**A.** Its value is -0.171.

**Q.** TAGTGGAA was tested. Which “PBM E-score” value did it give?
**A.** Its value is -0.014.

**Q.** With TGAAGGCA as the sequence, how does the “PBM E-score” value read?
**A.** Its value is -0.0871.

**Q.** For CATGCATA, which “PBM E-score” value is on record?
**A.** Its value is -0.196.

**Q.** How did the “PBM E-score” value turn out when CTTTAGTA was run?
**A.** The value was -0.105.

**Q.** AGCTGTGA was tested. Which “PBM E-score” value did it give?
**A.** Its value is -0.183.

**Q.** For AAGTACTC, which “PBM E-score” value is on record?
**A.** Its value is -0.121.

**Q.** For CAATAGTA, which “PBM E-score” value is on record?
**A.** The value was -0.0123.

**Q.** With AAATCCAG as the sequence, how does the “PBM E-score” value read?
**A.** The value was 0.0351.

**Q.** Which “PBM E-score” value does the source give for GTTCGTAA here?
**A.** The value was -0.107.

**Q.** Which “PBM E-score” value does the source give for GTTGTCCA here?
**A.** Its value is -0.159.

**Q.** For AGAATGAT, which “PBM E-score” value is on record?
**A.** The value was 0.0426.

**Q.** For CGAGACAC, which “PBM E-score” value is on record?
**A.** The value was 0.011.

**Q.** Which “PBM E-score” value does the source give for GTTGTTTA here?
**A.** Its value is -0.142.

**Q.** For AGGCCAAC, which “PBM E-score” value is on record?
**A.** The value was -0.0243.

**Q.** Which “PBM E-score” value does the source give for CTGAATCA here?
**A.** The value was -0.0725.

**Q.** With GCATGGAC as the sequence, how does the “PBM E-score” value read?
**A.** Its value is 0.0875.

**Q.** With CAGACCGG as the sequence, how does the “PBM E-score” value read?
**A.** The value was 0.226.

**Q.** For GCGGCCGC, which “PBM E-score” value is on record?
**A.** The value was 0.35.

**Q.** With ACGAAGTC as the sequence, how does the “PBM E-score” value read?
**A.** The value was -0.191.

**Q.** Which “PBM E-score” value does the source give for ACACTCAT here?
**A.** Its value is 0.0346.

**Q.** Which “PBM E-score” value does the source give for CCCTAATC here?
**A.** Its value is 0.00476.

**Q.** How did the “PBM E-score” value turn out when CATGCCCA was run?
**A.** The value was -0.148.

**Q.** For ACGAAAGG, which “PBM E-score” value is on record?
**A.** The value was 0.128.

**Q.** ATAAACGA was tested. Which “PBM E-score” value did it give?
**A.** The value was 0.0334.

**Q.** CAACGACG was tested. Which “PBM E-score” value did it give?
**A.** The value was -0.192.

**Q.** How did the “PBM E-score” value turn out when AGCGTGTG was run?
**A.** Its value is -0.119.

**Q.** How did the “PBM E-score” value turn out when ACTCTAGA was run?
**A.** The value was -0.141.

**Q.** How did the “PBM E-score” value turn out when ATCTTGGA was run?
**A.** Its value is -0.101.

**Q.** With GCTTTTAC as the sequence, how does the “PBM E-score” value read?
**A.** Its value is -0.162.

**Q.** GTGAACGA was tested. Which “PBM E-score” value did it give?
**A.** The value was -0.0938.

**Q.** With CACGAGAA as the sequence, how does the “PBM E-score” value read?
**A.** The value was -0.0897.

**Q.** How did the “PBM E-score” value turn out when GACCTAGC was run?
**A.** Its value is -0.107.

**Q.** Which “PBM E-score” value does the source give for GCGGTTAA here?
**A.** The value was 0.0091.

**Q.** How did the “PBM E-score” value turn out when CTCGTGAA was run?
**A.** Its value is -0.0493.

**Q.** With CCATCGGA as the sequence, how does the “PBM E-score” value read?
**A.** The value was 0.292.

**Q.** Which “PBM E-score” value does the source give for ATTGATGC here?
**A.** The value was 0.0778.

**Q.** For GCATAACA, which “PBM E-score” value is on record?
**A.** The value was -0.189.

**Q.** How did the “PBM E-score” value turn out when CGATCGAG was run?
**A.** The value was 0.247.

**Q.** Which “PBM E-score” value does the source give for AGAGGCCG here?
**A.** The value was -0.105.

**Q.** How did the “PBM E-score” value turn out when ATATAAAA was run?
**A.** Its value is 0.0558.

**Q.** Which “PBM E-score” value does the source give for CCGGCACA here?
**A.** The value was 0.305.

**Q.** With ACGGTTTA as the sequence, how does the “PBM E-score” value read?
**A.** Its value is -0.0434.

**Q.** With ACTTATCT as the sequence, how does the “PBM E-score” value read?
**A.** Its value is -0.0989.

**Q.** Which “PBM E-score” value does the source give for GCAAGTGC here?
**A.** Its value is -0.246.

**Q.** With AACCCTAA as the sequence, how does the “PBM E-score” value read?
**A.** Its value is -0.101.

**Q.** ATAGAAGG was tested. Which “PBM E-score” value did it give?
**A.** The value was -0.00629.
